# The list shows a part of the results.
# B1: AFL5 (Aspergillus fumigatus), Q4WB00 (protein)
# chain: MDNFMEMTKKLGHQPELLRLRALDATYDDALEGKLVVAPLDMSEPGKKILDSGTADGTWLRNVRSKQSVPHDYYGSDVEGELFPKDPDGITYFAHSFKDPWPQQYLGFFDLVHIRGSLAGSAPEGPAPVIQNLTTLLKPGGWVQLMEMNAFSPPPNGPAMTDFAKMASEMFTGIGVGDFANNNKSMLEDAGLKNVQEKRVIVNLGKKAKPELHDQSIHGVTGPIVPLTSVARTVKSSFTGEQLDALPARVKEELETEGGQVEMIIAFGQKA
# How the values were obtained:
# Assay in all cases: glycan array binding signal (z-score within array); higher = stronger binding
# Settings in all cases: glycan notation: IUPAC condensed, linker removed
# [1] = target: Neu5Ac(a2-3)Gal(b1-3)[Neu5Ac(a2-6)]GlcNAc(b1-3)[Fuc(a1-3)[Gal(b1-4)]GlcNAc(b1-6)]Gal(b1-4)Glc
# In short: (§1)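 The Consortium for Functional Glycomics database supplied 3228 glycan arrays, of which those lacking an available protein sequence were dropped. The binding signal, a within-array Z-score, was averaged across arrays of the same protein sequence and across linkers. Negative scores can be read as non-binding.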
# [2] = target: Neu5Ac(a2-3)Gal(b1-3)]Neu5Ac(a2-3)Gal(b1-4)]GlcNAc
# In short: as §1
# Neu5Ac(a2-3)Gal(b1-4)Glc = target: Neu5Ac(a2-3)Gal(b1-4)Glc
# In short: as §1
# [3] = target: Neu5Ac(a2-3)Gal(b1-4)GlcNAc
# In short: as §1
# [4] = target: Neu5Ac(a2-3)Gal(b1-4)GlcNAc(b1-2)Man
# In short: as §1
# [5] = target: Neu5Ac(a2-3)Gal(b1-4)GlcNAc(b1-2)Man(a1-3)[GlcNAc(b1-4)][Neu5Ac(a2-3)Gal(b1-4)GlcNAc(b1-2)Man(a1-6)]Man(b1-4)GlcNAc(b1-4)GlcNAc
# In short: as §1
# [6] = target: Neu5Ac(a2-3)Gal(b1-4)GlcNAc(b1-2)Man(a1-3)[Neu5Ac(a2-3)Gal(b1-4)GlcNAc(b1-2)Man(a1-6)]Man(b1-4)GlcNAc(b1-4)GlcNAc
# In short: as §1
# [7] = target: Neu5Ac(a2-3)Gal(b1-4)GlcNAc(b1-2)Man(a1-3)[Neu5Ac(a2-3)Gal(b1-4)GlcNAc(b1-2)Man(a1-6)]Man(b1-4)GlcNAc(b1-4)[Fuc(a1-6)]GlcNAc
# In short: as §1
# [8] = target: Neu5Ac(a2-3)Gal(b1-4)GlcNAc(b1-2)Man(a1-3)[Neu5Ac(a2-6)Gal(b1-4)GlcNAc(b1-2)Man(a1-6)]Man(b1-4)GlcNAc(b1-4)GlcNAc
# In short: as §1
# [9] = target: Neu5Ac(a2-3)Gal(b1-4)GlcNAc(b1-2)[Neu5Ac(a2-3)Gal(b1-4)GlcNAc(b1-4)]Man(a1-3)[GlcNAc(b1-4)][Neu5Ac(a2-3)Gal(b1-4)GlcNAc(b1-2)[Neu5Ac(a2-3)Gal(b1-4)GlcNAc(b1-6)]Man(a1-6)]Man(b1-4)GlcNAc(b1-4)GlcNAc
# In short: as §1
# [10] = target: Neu5Ac(a2-3)Gal(b1-4)GlcNAc(b1-2)[Neu5Ac(a2-3)Gal(b1-4)GlcNAc(b1-4)]Man(a1-3)[GlcNAc(b1-4)][Neu5Ac(a2-3)Gal(b1-4)GlcNAc(b1-4)Man(a1-6)]Man(b1-4)GlcNAc(b1-4)GlcNAc
# In short: as §1
# [11] = target: Neu5Ac(a2-3)Gal(b1-4)GlcNAc(b1-2)[Neu5Ac(a2-3)Gal(b1-4)GlcNAc(b1-6)]Man(a1-6)[Neu5Ac(a2-3)Gal(b1-4)GlcNAc(b1-2)Man(a1-3)][GlcNAc(b1-4)]Man(b1-4)GlcNAc(b1-4)GlcNAc
# In short: as §1
# [12] = target: Neu5Ac(a2-3)Gal(b1-4)GlcNAc(b1-3)Gal
# In short: as §1
# [13] = target: Neu5Ac(a2-3)Gal(b1-4)GlcNAc(b1-3)Gal(b1-3)GlcNAc
# In short: as §1
# [14] = target: Neu5Ac(a2-3)Gal(b1-4)GlcNAc(b1-3)Gal(b1-4)GlcNAc
# In short: as §1
# [15] = target: Neu5Ac(a2-3)Gal(b1-4)GlcNAc(b1-3)Gal(b1-4)GlcNAc(b1-2)Man(a1-3)[Neu5Ac(a2-3)Gal(b1-4)GlcNAc(b1-3)Gal(b1-4)GlcNAc(b1-2)Man(a1-6)]Man(b1-4)GlcNAc(b1-4)GlcNAc
# In short: as §1
# [16] = target: Neu5Ac(a2-3)Gal(b1-4)GlcNAc(b1-3)Gal(b1-4)GlcNAc(b1-3)Gal(b1-4)GlcNAc
# In short: as §1
# [17] = target: Neu5Ac(a2-3)Gal(b1-4)GlcNAc(b1-3)Gal(b1-4)GlcNAc(b1-3)Gal(b1-4)GlcNAc(b1-2)Man(a1-3)[Neu5Ac(a2-3)Gal(b1-4)GlcNAc(b1-3)Gal(b1-4)GlcNAc(b1-3)Gal(b1-4)GlcNAc(b1-2)Man(a1-6)]GalNAc
# In short: as §1
# [18] = target: Neu5Ac(a2-3)Gal(b1-4)GlcNAc(b1-3)Gal(b1-4)GlcNAc(b1-3)GalNAc
# In short: as §1
# [19] = target: Neu5Ac(a2-3)Gal(b1-4)GlcNAc(b1-3)Gal(b1-4)GlcNAc(b1-3)[Neu5Ac(a2-3)Gal(b1-4)GlcNAc(b1-3)Gal(b1-4)GlcNAc(b1-6)]GalNAc
# In short: as §1
# [20] = target: Neu5Ac(a2-3)Gal(b1-4)GlcNAc(b1-3)Gal(b1-4)GlcNAc(b1-6)[Gal(b1-3)]GalNAc
# In short: as §1
# [21] = target: Neu5Ac(a2-3)Gal(b1-4)GlcNAc(b1-3)Gal(b1-4)[Fuc(a1-3)]GlcNAc
# In short: as §1
# [22] = target: Neu5Ac(a2-3)Gal(b1-4)GlcNAc(b1-3)GalNAc
# In short: as §1
# [23] = target: Neu5Ac(a2-3)Gal(b1-4)GlcNAc(b1-3)[Neu5Ac(a2-3)Gal(b1-4)GlcNAc(b1-6)]GalNAc
# In short: as §1
# [24] = target: Neu5Ac(a2-3)Gal(b1-4)GlcNAc(b1-6)GalNAc
# In short: as §1
# [25] = target: Neu5Ac(a2-3)Gal(b1-4)GlcNAc(b1-6)[Gal(b1-3)]GalNAc
# In short: as §1
# [26] = target: Neu5Ac(a2-3)Gal(b1-4)GlcNAc(b1-6)[Neu5Ac(a2-3)Gal(b1-3)]GalNAc
# In short: as §1
# [27] = target: Neu5Ac(a2-3)Gal(b1-4)GlcNAc6S
# In short: as §1
# [28] = target: Neu5Ac(a2-3)Gal(b1-4)[Fuc(a1-3)]GlcNAc
# In short: as §1
# [29] = target: Neu5Ac(a2-3)Gal(b1-4)[Fuc(a1-3)]GlcNAc(b1-2)Man
# In short: as §1
# [30] = target: Neu5Ac(a2-3)Gal(b1-4)[Fuc(a1-3)]GlcNAc(b1-3)Gal
# In short: as §1
# [31] = target: Neu5Ac(a2-3)Gal(b1-4)[Fuc(a1-3)]GlcNAc(b1-3)Gal(b1-4)GlcNAc
# In short: as §1
# [32] = target: Neu5Ac(a2-3)Gal(b1-4)[Fuc(a1-3)]GlcNAc(b1-3)Gal(b1-4)[Fuc(a1-3)]GlcNAc(b1-3)Gal(b1-4)[Fuc(a1-3)]GlcNAc
# In short: as §1
# [33] = target: Neu5Ac(a2-3)Gal(b1-4)[Fuc(a1-3)]GlcNAc(b1-3)GalNAc
# In short: as §1
# [34] = target: Neu5Ac(a2-3)Gal(b1-4)[Fuc(a1-3)]GlcNAc(b1-6)[Gal(b1-3)]GalNAc
# In short: as §1
# [35] = target: Neu5Ac(a2-3)Gal(b1-4)[Fuc(a1-3)]GlcNAc(b1-6)[Neu5Ac(a2-3)Gal(b1-3)]GalNAc
# In short: as §1
# [36] = target: Neu5Ac(a2-3)Gal(b1-4)[Fuc(a1-3)]GlcNAc6S
# In short: as §1
# [37] = target: Neu5Ac(a2-3)Gal6S(b1-4)GlcNAc
# In short: as §1
binder,measurement,setting,value
B1,glycan array binding signal (z-score),[1],0.688
same,glycan array binding signal (z-score),[2],0.099
same,glycan array binding signal (z-score),Neu5Ac(a2-3)Gal(b1-4)Glc,0.072
same,glycan array binding signal (z-score),[3],-0.07
same,glycan array binding signal (z-score),[4],0.737
same,glycan array binding signal (z-score),[5],0.146
same,glycan array binding signal (z-score),[6],-0.219
same,glycan array binding signal (z-score),[7],-0.015
same,glycan array binding signal (z-score),[8],-0.363
same,glycan array binding signal (z-score),[9],-0.241
same,glycan array binding signal (z-score),[10],-0.417
same,glycan array binding signal (z-score),[11],-0.251
same,glycan array binding signal (z-score),[12],-0.44
same,glycan array binding signal (z-score),[13],-0.223
same,glycan array binding signal (z-score),[14],0.372
same,glycan array binding signal (z-score),[15],-0.191
same,glycan array binding signal (z-score),[16],-0.053
same,glycan array binding signal (z-score),[17],2.14
same,glycan array binding signal (z-score),[18],-0.218
same,glycan array binding signal (z-score),[19],0.858
same,glycan array binding signal (z-score),[20],-0.326
same,glycan array binding signal (z-score),[21],0.109
same,glycan array binding signal (z-score),[22],0.859
same,glycan array binding signal (z-score),[23],-0.26
same,glycan array binding signal (z-score),[24],0.018
same,glycan array binding signal (z-score),[25],0.375
same,glycan array binding signal (z-score),[26],-0.74
same,glycan array binding signal (z-score),[27],0.093
same,glycan array binding signal (z-score),[28],-0.395
same,glycan array binding signal (z-score),[29],-0.274
same,glycan array binding signal (z-score),[30],0.18
same,glycan array binding signal (z-score),[31],-0.096
same,glycan array binding signal (z-score),[32],-0.363
same,glycan array binding signal (z-score),[33],0.219
same,glycan array binding signal (z-score),[34],0.716
same,glycan array binding signal (z-score),[35],1.05
same,glycan array binding signal (z-score),[36],-0.283
same,glycan array binding signal (z-score),[37],-0.728

# Reference: the supplement of paper PMC8728848
